About 5,300 (4.4%) of roughly 120,000 compounds were called active. The inconclusive results got no clear call from the source; some entries with a clear call stand among them for comparison. Calls follow the shape of the dose curve; as a rule, active = well fitted inhibition curve with a large enough effect; inconclusive = small, poorly fitted or top-dose-only effect; inactive = no such curve, though single readings can be large or run the other way. Potencies of inconclusive entries are doubtful fits and often do not repeat.
Experiment: qHTS Primary assay for Inhibitors of Plasmodium falciparum Dd2 growth in vitro; also: nearly all actives have a fitted effect of over 65% in size
Conditions: P. falciparum Dd2 growth, SYBR Green, 72 h; series mostly up to 28.9 µM
Procedure, shortened: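 Readout: SYBR Green fluorescence, 485 nm excitation, 535 nm emission, after ~16 h lysis at 37C. Before that, Dd2-infected red cells (2.5% hematocrit) grew 72 h with compound, 29 uM top final concentration.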
Potency is read from the fitted curve at half-maximal effect; tags tell the direction and shape of the fitted curve.

SMILES | Potency
CC(=O)Nc1ccc(C2(C(=O)N3CCCCCC3)CCC2)cc1 | inactive
COc1ccc(-c2cn(C)c(=O)n3cc(COc4ccc(C(=O)O)cc4)nc23)c(C)c1 | inconclusive: 0.708 µM [inhibitor, full curve, poor fit]
COc1ccc(-c2cc(-c3cccnc3OC)cn3cncc23)cc1 | inconclusive: 3.55 µM [inhibitor, single point]
FC(F)(F)C1CN(c2cc(N3CCOCC3)ncn2)CCO1 (configuration not stated) | inactive
CCc1noc(-c2ccn3c(CNC(=O)COc4cccc(C)c4)nnc3c2)n1 | inconclusive: 0.224 µM [inhibitor, full curve]
COc1cc2c(cc1OC)C(COc1ccccc1OC)N(C(=O)c1ccc(S(=O)(=O)N3CCCC3)cc1)CC2 (configuration not stated) | active: 11.2 µM
O=C(C1CCCCC1)N(Cc1cccnc1)c1nc2c(F)cccc2s1 | inconclusive: 8.91 µM [inhibitor, partial curve, poor fit]
CCOC(=O)c1cc(-c2ccccc2)n(-c2cccc(C(=O)NC(C)CC)c2)c1C (configuration not stated) | inconclusive: 17.8 µM [inhibitor, single point]
O=C(Cc1cccc(F)c1)NCc1nnc2ccc(-c3ccc(Cl)cc3)nn12 | inactive
CCn1c(CN2CCCCC2)nc2cc(NC(=O)COc3cc(C)ccc3C(C)C)ccc21 | inconclusive: 11.2 µM [inhibitor, single point]
COc1ccc2cc1Nc1ccc(cc1)C[C@H](NCC1CC1)C(=O)N(C)[C@@H](C(=O)Nc1ccccc1)C2 | active: 3.98 µM
COc1ccc(N2CCN(C(=O)c3cn(C4CCCCC4)c(=O)c4c3c3ccccc3n4C)CC2)cc1 | active: 5.01 µM
Cc1ccccc1CNC[C@H]1Cn2ccnc2CO1 | inconclusive: 25.1 µM [inhibitor, single point]
Cc1ccc(-c2cc3c(=O)n(CCNC(=O)c4cccc(C#N)c4)ccn3n2)c(C)c1 | inconclusive: 0.631 µM [inhibitor, partial curve, poor fit]
CCn1ncc(N2CCC(NC(=O)c3ccc(C)c(F)c3)CC2)cc1=O | inactive
O=C(c1ccncc1)N1CC(Oc2ccc(-c3noc(-c4ccccc4)n3)cc2)C1 | inconclusive: 6.31 µM [inhibitor, partial curve]
Cc1ccccc1CC(=O)N1CCC[C@H]1c1nc(-c2ccc(F)cc2)no1 | inactive
Cc1cn2nc(C(=O)N3CCC(NC(=O)c4ccc(F)cc4)CC3)cc2c(=O)[nH]1 | inconclusive: 0.251 µM [inhibitor, full curve, poor fit]
O=C(NC1CCCC1)C1(CCO)CCN(Cc2ccccc2)C1 (configuration not stated) | inconclusive: 3.98 µM [inhibitor, single point]
COCCCNC(=O)c1sc2nc(C)c(C(=O)Nc3ccc(Cl)cc3)c(-c3ccc(Br)cc3)c2c1N | inactive
CN1CCN(C(=O)Cc2c[nH]c3ncc(-c4cccc(OC(F)(F)F)c4)cc23)CC1 | inactive
O=C(c1cc(C(F)(F)F)[nH]n1)N1CC[C@@H](c2ccc(F)cc2)[C@H](O)C1 | inconclusive: 0.141 µM [inhibitor, full curve, poor fit]
CCN(CC)CCNC(=O)c1sc2nc(C)cc(C)c2c1-n1cccc1 | inconclusive: 8.91 µM [inhibitor, single point]
Oc1ccccc1CN1CCNc2cc(Nc3cccnc3)ncc2C1 | active: 8.91 µM

SMILES | Potency
COc1cccc(OC)c1C(=O)N1C(C(=O)NCC(C)C)COC12CCCC(C)C2 (configuration not stated) | inconclusive: 3.98 µM [inhibitor, partial curve]
COc1ccc(NC(=O)Cn2ccn(Cc3ccccc3)c(=O)c2=O)cc1Cl | inactive
CCCNC(=O)c1noc(-c2ccc(C#N)cc2)n1 | inactive
CCC(=O)Nc1cc(-c2nc3cc(C)cc(C)c3o2)ccc1C | inconclusive: 3.98 µM [inhibitor, single point]
COc1cc(-c2ccnc(-c3nnc(C)n3C3CCCCC3)c2)ccn1 | inconclusive: 3.55 µM [inhibitor, partial curve, poor fit]
OC1(CN2CCCCC2)CCN(Cc2cnn(-c3cccc(F)c3)c2)C1 (configuration not stated) | inconclusive: 12.6 µM [inhibitor, single point]
Cc1ccccc1OCC(=O)NCC(c1ccc(Cl)cc1)N1CCOCC1 (configuration not stated) | inconclusive: 8.91 µM [inhibitor, single point]
COc1ccc(C(=O)N2C[C@@H](Oc3ccccc3)C[C@@H]2C(=O)N2CCOCC2)cc1 | inactive
O=C(Nc1cccc(C(F)(F)F)c1)O[C@@H]1CO[C@H]2[C@@H]1OC[C@@H]2NC(=S)NC1CCCCC1 | inactive
COc1ccc(CCNc2ncnc3c2CN(c2ccc(Cl)cc2)C(=O)N(C)C3)cc1 | inactive
Fc1ccc(F)c(Nc2c3c(nc4ccc(Cl)cc24)CCC3)c1 | inconclusive: 0.0282 µM [inhibitor, full curve, poor fit]
O=C(CCc1ccccc1)N1CCCC(c2noc(COc3ccccc3F)n2)C1 (configuration not stated) | inactive
O=C(NC1CC1)c1nc(-c2ccc(Cl)cc2Cl)c2ccccn12 | inconclusive: 8.91 µM [inhibitor, partial curve, poor fit]
CN1C(=O)[C@H]2CN(Cc3cc(F)c(F)cc3F)C[C@H]2C1=O | inactive
CCOC(=O)c1ccc2c(c1)sc1nc(-c3ccc(OCC)cc3)cn12 | inconclusive: 11.2 µM [inhibitor, single point]
CCOc1ccc(CCNC(=O)CSc2nnnn2-c2ccccc2Cl)cc1OCC | inconclusive: 8.91 µM [inhibitor, single point]
CNC(=O)N1CCC(N2CC3CC(C2)[C@H]2CCCC(=O)N2C3)CC1 (some centres not stated) | inactive
COCCNC(=O)[C@@H]1C[C@H](Oc2cccnc2)CN1C(=O)c1cc(-c2ccc(C)cc2)n[nH]1 | inactive
Cc1cccc(-c2nc(SCc3cc(=O)c4cccc(F)c4[nH]3)n[nH]2)c1 | inactive
O=C(c1cnccn1)N1CCCC(Cc2noc(-c3ccccn3)n2)C1 (configuration not stated) | inconclusive: 3.98 µM [inhibitor, single point]
CCOC(=O)c1c(NC(=O)c2cc(=O)c3cc(Cl)ccc3o2)sc(C)c1C | inactive
COc1ccc(CCC(=O)N2CCCC(n3cc(-c4nc(-c5ccccc5)no4)nn3)C2)cc1 (configuration not stated) | inconclusive: 1.41 µM [inhibitor, partial curve, poor fit]
COCc1nncn1C1CCN(S(=O)(=O)c2ccc(C)c(Cl)c2)CC1 | inconclusive: 17.8 µM [inhibitor, single point]
Cc1ccc(C2Cn3nnc(-c4noc(-c5cnccn5)n4)c3CO2)cc1 (configuration not stated) | inactive

SMILES | Potency
C[C@@H](c1ccccc1)N(C)C(=O)c1cc(COc2cccc(F)c2)[nH]n1 | inconclusive: 10 µM [inhibitor, single point]
O=C1N(C2CCNCC2)C(c2ccccc2)C12CCCCC2 (configuration not stated) | inactive
Cc1cccc2sc(N(Cc3cccnc3)C(=O)CCS(=O)(=O)c3ccccc3)nc12 | inconclusive: 17.8 µM [inhibitor, single point]
CC(C)NC(=O)c1ccc2nccn2c1 | inactive
COCc1nc(CCNC(=O)c2sc(C)nc2C)no1 | inactive
Cc1ncsc1CN1CCCCCNC(=O)[C@@H]2CCC[C@@H]21 | inactive
CCO[C@H]1CN(Cc2cnc(-c3ccccc3C)s2)C[C@@H]1O | inactive
Nc1ccc(-c2ccc(OCCn3ccnc3)cc2)cn1 | inactive
Cc1cccc(-c2cc(C3CCN(S(=O)(=O)c4ccc(C#N)cc4)CC3)[nH]n2)c1 | inconclusive: 3.98 µM [inhibitor, partial curve, poor fit]
Cc1ccccc1CNC(=O)C1c2ccccc2CC(=O)N1C(C)C (configuration not stated) | inactive
O=C1COC[C@H]([C@H](O)c2ccc(NC(=O)c3ccc(C(F)(F)F)cc3)cc2)N1 | inconclusive: 2 µM [inhibitor, partial curve, poor fit]
COc1ccc(CC(=O)N2CCc3nc(C)nc(-c4ccc(Cl)cc4)c3CC2)cc1 | inactive
COC(=O)c1cccc(NC(=O)c2cnc(-c3ccc(F)cc3)nc2-c2ccncc2)c1 | inactive
COc1ccccc1CN1CCC(CN(CC(C)C)C(=O)C2C=CCN2)CC1 (configuration not stated) | inconclusive: 11.2 µM [inhibitor, partial curve]
CCOc1ccc(CCNC(=O)CCCc2nnc3n(CCCOC)c(=O)c4sccc4n23)cc1 | inconclusive: 11.2 µM [inhibitor, partial curve, poor fit]
COc1cccc2sc(N(Cc3cccnc3)C(=O)C3CCCCC3)nc12 | inconclusive: 17.8 µM [inhibitor, single point]
CCOC(=O)C1CCCN(C(=O)c2cc3c(Cl)nc4ccccc4c3s2)C1 (configuration not stated) | inactive
Cc1c(F)cccc1NC(=O)N1CCC(Oc2ncccc2C(=O)N2CCCCC2)C1 (configuration not stated) | inconclusive: 10 µM [inhibitor, partial curve]
CCc1nncn1C1CCN(S(=O)(=O)c2cccs2)C1 (configuration not stated) | inactive
CCOCCN1C(=O)COC[C@@H]1[C@H](O)c1ccc(NC(=O)CC(C)(C)C)cc1 | inactive
CCc1ccc(-n2nnnc2N2CCN(C(=O)Nc3ccc(C)c(F)c3)CC2)cc1 | inconclusive: 7.94 µM [inhibitor, partial curve, poor fit]
O=C(c1ccoc1)N1CCc2onc(C(c3ccccc3)c3ccccc3)c2C1 | inconclusive: 10 µM [inhibitor, single point]
COc1ccc(C(=O)N2CCCCCC2c2nc(-c3cccnc3)no2)cc1 (configuration not stated) | inactive
COc1cc2nc(-c3cc4c(c(OC)c3)OCCNC4)cc(C)c2cc1OC | inconclusive: 12.6 µM [inhibitor, single point]

— PubChem BioAssay AID1347417 (National Center for Advancing Translational Sciences (NCATS), 2020)
